PubChem BioAssay AID651815 (National Center for Advancing Translational Sciences (NCATS), 2012)
The whole screen tested about 2,100 compounds, of which about 1,100 (52%) were called active. So high a share suggests a set chosen from earlier hits. Inconclusive means that the source gave no clear call. Such entries were picked first, then a sample of the others. The call rests on the fitted dose curve; in most records, active means well fitted inhibition curve with a large enough effect; inconclusive means small, poorly fitted or top-dose-only effect; inactive means no such curve, though single readings can be large or run the other way. No potency is given beside an inconclusive call; the fits are too rough.

Target: DNA dC->dU-editing enzyme APOBEC-3F (Homo sapiens) (UniProt Q8IUX4)
Sequence of UniProt Q8IUX4 (Q8IUX4 whole entry, looked up): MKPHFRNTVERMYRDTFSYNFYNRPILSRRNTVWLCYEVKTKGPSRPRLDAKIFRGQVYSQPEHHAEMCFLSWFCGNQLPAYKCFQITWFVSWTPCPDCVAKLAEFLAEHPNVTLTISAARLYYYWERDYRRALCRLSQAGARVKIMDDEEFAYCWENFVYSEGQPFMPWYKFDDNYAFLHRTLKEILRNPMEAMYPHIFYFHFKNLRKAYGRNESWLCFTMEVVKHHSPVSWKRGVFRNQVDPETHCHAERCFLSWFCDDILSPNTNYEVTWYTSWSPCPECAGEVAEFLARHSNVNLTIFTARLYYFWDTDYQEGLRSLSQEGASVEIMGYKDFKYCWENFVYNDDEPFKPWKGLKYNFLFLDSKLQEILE
Assay: qHTS for inhibitors of Vif-A3F interactions: Cherry picks counterscreen; further: nearly all actives have a fitted effect of over 65% in size
Details: HeLa A3F-eYFP/Vif cells, eYFP fluorescence, 24 h; series mostly up to 46.1 µM; activity, negative = inhibitor: at the top concentration
Procedure, shortened: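 Rescue of Vif-driven A3F-eYFP degradation read as cellular eYFP fluorescence after 24 h compound exposure (several concentrations) in stable HeLa cells; MG132 (2 mM stock) as positive control.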
On the % scale 0 is the no-effect control and ±100 the full control effect; potency means the concentration at half of the fitted maximal effect; tags describe the fitted curve by direction and shape.

SMILES | activity, negative = inhibitor | Potency
COc1cc(NC(=O)c2ccco2)c(C(=O)OCC(=O)c2c[nH]c3ccccc23)cc1OC | inactive: -10.7% [at 36.9 µM] | –
Cc1ccc(NC(=O)CO/N=C/c2ccc(N(C)C)cc2)cc1 | – | inconclusive [inhibitor, single point]
CCOc1ccc(S(=O)(=O)Nc2cc3c(C(=O)OC)c(COC)oc3c3ccccc23)cc1 | – | inconclusive [inhibitor, full curve]
Cc1cc(/C=C2\SC(=S)N(C)C2=O)c(C)n1-c1ccc(O)cc1 | – | active: 18.4 µM
COc1cccc(OCc2nc3ncc(Br)cc3[nH]2)c1 | – | inconclusive [inhibitor, full curve]
CC(NC(=S)Nc1cccc(C(F)(F)F)c1)C(C)(C)C (stereo not drawn) | inactive: -9.15% | –
O=[N+]([O-])c1cc(O)c2ncccc2c1 | inactive: -1.6% [at 36.9 µM] | –
Cc1ccc2nc(/C(C#N)=C/c3ccc(-c4cccc(Cl)c4)o3)[nH]c2c1 | – | active: 8.2 µM
CC1=C(n2nnc3ccccc32)C(c2ccccc2)C(C#N)=C(N)O1 (stereo not drawn) | inactive: -24.2% | –
Cc1ccc(C(=O)NC(=C(Cl)Cl)S(=O)(=O)c2ccc(Cl)cc2)cc1 | – | inconclusive [inhibitor, partial curve, poor fit]
C=CCN1C(=O)/C(=C\C=C2\N(C)c3ccccc3C2(C)C)SC1=S | – | inconclusive [inhibitor, full curve, poor fit]
NC(=O)CC(NC(=O)Cc1ccc(Br)cc1)c1ccc(NCc2ccc(F)cc2)c([N+](=O)[O-])c1 (stereo not drawn) | – | inconclusive [inhibitor, single point]
Cc1c(C(=O)N/N=C/C(C)C)[nH]c2c([N+](=O)[O-])cccc12 | – | inconclusive [inhibitor, single point]
Cc1sc2ncn(CC(=O)NCc3ccccc3)c(=O)c2c1C | inactive: -9.93% [at 36.9 µM] | –
Cc1cccc(NC(=O)N2CC=C(c3c[nH]c4ccccc34)CC2)c1C | – | inconclusive [inhibitor, single point]
c1ccc2[nH]c(NN=C3CCCCCC3)nc2c1 | inactive: -14.5% | –
COc1ccc(-c2cc(C(=O)N/N=C/c3sccc3C)c3ccccc3n2)c(OC)c1 | – | inconclusive [inhibitor, partial curve]
Nc1ccc2nc(-c3ccccc3)c(-c3ccccc3)nc2c1 | inactive: -17.6% [at 36.9 µM] | –
CCOC(=O)C1CCCN(C(=O)c2ccc3nc(-c4cccc(OC)c4)oc3c2)C1 (stereo not drawn) | – | inconclusive [inhibitor, partial curve]
COc1cc(/C=C2/SC(=S)N(CC3CCCO3)C2=O)ccc1O (stereo not drawn) | – | inconclusive [inhibitor, single point]
Brc1ccc2c(c1)[C@H]1OCC[C@H]1[C@@H](c1cccs1)N2 | – | inconclusive [inhibitor, single point]
O=[N+]([O-])c1ccc(/C=N/Nc2ccc3ccccc3c2)o1 | – | inconclusive [inhibitor, full curve]
CCCCn1c(N)c(N(Cc2ccccc2OC)C(=O)c2ccc([N+](=O)[O-])s2)c(=O)[nH]c1=O | inactive: -16.1% | –
Cc1[nH]c2ccccc2c1/C=C/c1ccc2ccccc2n1 | – | active: 18.4 µM

SMILES | activity, negative = inhibitor | Potency
c1ccc(N=NC2=NN(c3ccccc3)CS2)cc1 | inactive: 0.0565% | –
COc1ccc(C)cc1NCc1cc(=O)oc2cc(-c3ccccc3)c(O)cc12 | inactive: -25.1% [at 36.9 µM] | –
Cc1cccc(NC(=O)/C(C#N)=C/c2cn(CC(=O)NCc3ccco3)c3ccccc23)c1C | – | inconclusive [inhibitor, single point]
COCCCNC(=S)N/N=C/c1cccc(OC)c1O | inactive: -2.88% | –
O=C1OC(Nc2nc(-c3ccc(F)cc3)cs2)c2ccccc21 (stereo not drawn) | – | inconclusive [inhibitor, single point]
Cc1oc(C)c2c(=O)ccc3c(c12)OC(N)=C(C#N)C3c1ccc(F)cc1 (stereo not drawn) | inactive: 40.3% | –
COc1ccc(NC(=O)C(NC(=O)/C=C\c2ccc3c(c2)OCO3)c2ccccc2)cc1 (stereo not drawn) | – | inconclusive [inhibitor, partial curve]
COc1ccc(N=Cc2c(O)c3ccccc3n2C(C)=O)cc1 | – | active: 16.4 µM
Cc1cc(-n2c(SCC(=O)Nc3ccc(Br)cc3)nc3n[nH]c(C)c3c2=N)ccc1Cl | – | inconclusive [inhibitor, single point]
CC(=O)Nc1cccc(-c2cc(NC=O)c3ncc(-c4ccc(F)c(Cl)c4)n3c2)c1 | – | inconclusive [inhibitor, partial curve]
CN(C)c1ccc(/C=C(/C#N)C(=O)NCc2ccccc2)o1 | – | inconclusive [inhibitor, single point]
N#Cc1c(-c2ccccc2F)cc(C2CC2)nc1SCC(=O)c1cccs1 | – | active: 14 µM
Cc1cc(C(=O)N/N=C/c2ccc(C)o2)c2ccccc2n1 | – | active: 2.23 µM
COc1cc2c(cc1OC)CN(C(=O)c1ccc3nc[nH]c3c1)CC2 | – | inconclusive [inhibitor, single point]
Fc1ccc2nc3[nH]c4ccccc4c3nc2c1 | – | active: 0.886 µM
COc1ccc2c(c1)c(/C=C/c1cc[n+](C)cc1)cn2C | – | inconclusive [inhibitor, partial curve, poor fit]
CCN(CC)c1ccc(/C=C2\SC(N)=NC2=O)cc1 | – | inconclusive [inhibitor, partial curve]
C=CCN1C(=O)/C(=C/c2ccc(O)c(OC)c2)S/C1=N/c1nccs1 | inactive: 46.6% | –
Cc1cc(C)nc(-n2nc(C)cc2NC(=O)c2ccc(F)cc2F)n1 | inactive: -4.7% | –
N#C/C=C/N1CCN(C(=O)c2ccco2)CC1 | inactive: 15% [at 36.9 µM] | –
Cc1c(C)n(Cc2ccccc2)c2ccc(C(=O)NCc3ccco3)cc12 | – | inconclusive [inhibitor, partial curve]
COc1cc(/C=C(/C#N)c2nc3ccccc3[nH]2)ccc1OC(=O)c1ccco1 | inactive: 32.9% [at 36.9 µM] | –
CCOC(=O)/C=c1/s/c(=C\c2c(OC)ccc3ccccc23)c(=O)n1CC(=O)NCC1CCCO1 (stereo not drawn) | – | active: 9.94 µM
COc1ccc2cc(C(=O)C3CCCN(Cc4ccccn4)C3)ccc2c1 (stereo not drawn) | inactive: -1.67% | –
